In PubChem BioAssay AID686971 (National Center for Advancing Translational Sciences (NCATS), 2013):
Out of some 360,000 compounds screened, about 7,500 (2.1%) were called active. Inconclusive results, whose numbers are uncertain, are shown with a selection of clear calls. The call rests on the fitted dose curve; in most records, active means well fitted cell-killing curve with a large enough effect; inconclusive means small, poorly fitted or top-dose-only effect, or effect the other way, or another doubt; inactive means no such curve, though single readings can be large or run the other way. No potency is given beside an inconclusive call; the fits are too rough.
Potency means the concentration at half of the fitted maximal effect; tags describe the fitted curve by direction and shape.

Experiment: qHTS for induction of synthetic lethality in tumor cells producing 2HG: qHTS for the HT-1080-IDH1KD cell line;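 on activity, negative = toxicity: 0% = DMSO wells and -100% = cell-free medium wells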
Conditions: HT-1080 IDH1 knockdown viability, ATP luminescence, 48 h; activity, negative = toxicity: at 46.1 µM (top of the series) unless noted
Outline: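 In this qHTS, HT-1080 cells depleted of IDH1 are exposed for 48 h at 37 °C to compound titrations. Toxicity is scored from CellTiter-Glo luminescence, with DMSO as full viability and medium alone as none.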
In the case of `COc1ccc(C=C(c2nc3ccccc3s2)c2nc3ccccc3s2)cc1O`, the Potency is reported as inconclusive [cytotoxic, partial curve]. For `Cc1cccc(C)c1NC(=O)C1(C)CN(S(C)(=O)=O)CC(=O)N1CCc1ccc(O)cc1` (stereo unspecified), the Potency was “inactive”. In the case of `C[C@@H]1C=CC(=O)O[C@@H]1c1ccc(Cl)cc1`, the Potency is reported as inconclusive [cytotoxic, partial curve, poor fit]. For `O=[N+]([O-])c1cccc(NNS(=O)(=O)c2ccccc2F)c1`, the Potency was active: 5.8 µM. With `c1ccc(Cn2nnc3c(Nc4ccc5c(c4)OCO5)nc(C4CC4)nc32)cc1` the Potency was inconclusive [cytotoxic, single point]. For `COc1ccc(C2c3[nH]c4ccccc4c3CCN2Cc2cccn2-c2ncccn2)cc1C` (stereo unspecified), the Potency was active: 23.1 µM. For `COC(=O)c1ccc2nc(Nc3nc4ccc(F)cc4s3)sc2c1`, the Potency was inconclusive [cytotoxic, single point]. For `O=C(CCN1CCN(c2ccccc2)CC1)N/N=C/c1ccccc1O`, the Potency was active: 20.6 µM. In the case of `COc1cc(Nc2c3ccccc3nc3ccccc23)cc(OC)c1OC`, the Potency is reported as inconclusive [cytotoxic, single point]. For `COc1ccc(CCc2cc(OC)c(OC)c(OC)c2)cc1`, the Potency was inconclusive [cytotoxic, partial curve]. For `COc1cccc(CN(C)CC(O)COC(c2ccccc2)c2ccccc2C)c1` (stereo unspecified), the Potency was inconclusive [cytotoxic, single point]. For `O=C1CCCN1CCC1CCCCN1Cc1nc(-c2cnccn2)no1` (stereo unspecified), the Potency was “inactive”. In the case of `O=C(Cc1ccccc1)Nc1ccc(CN2CCOCC2)cc1`, the Potency is reported as inconclusive [cytotoxic, single point]. For `O=c1[nH]c(Nc2nc3ccccc3o2)nc2c1CCCC2`, the Potency was active: 3.98 µM. With `CC(C)C[C@@H](CN1CCC[C@H]1CN1C(=O)C(=O)NC[C@@H]1Cc1ccccc1)N1C[C@H](Cc2ccccc2)N(CCc2ccccc2)C(=O)C1=O` the Potency was inconclusive [cytotoxic, single point]. For `COc1cc(Cl)ccc1OC1(C)CCN(Cc2ccc(SC)cc2)C1` (stereo unspecified), the Potency was inconclusive [cytotoxic, single point]. For `NC(=O)CC(NC(=O)c1ccc(Br)cc1)c1ccc(NC2CCCCCCC2)c([N+](=O)[O-])c1` (stereo unspecified), the Potency was inconclusive [cytotoxic, single point]. In the case of `COCCCN=C1NN=C(c2cc(C)n(-c3ccccc3F)c2C)CS1`, the Potency is reported as inconclusive [cytotoxic, single point]. In the case of `Cc1ccc(S(=O)(=O)N2CCC[C@H]2C(=O)OCC(=O)Nc2ccc3c(c2)OCO3)cc1`, the Potency is reported as “inactive”. In the case of `Cc1ccc(S(=O)(=O)N(CC(O)CN2C(=O)NC(C)(C)C2=O)c2ccccc2)cc1` (stereo unspecified), the Potency is reported as “inactive”. In the case of `COc1ccc(-c2[nH]c3ccccc3c2SCCNC(=O)c2ccccc2)cc1`, the Potency is reported as inconclusive [cytotoxic, single point]. In the case of `COc1cc2c(cc1OC)C(c1cc(C)ccc1C)CC(=O)N2` (stereo unspecified), the Potency is reported as “inactive”. In the case of `Nc1ncc(-c2ccccc2)c(-c2ccc(OCc3ccccc3)cc2O)n1`, the Potency is reported as inconclusive [cytotoxic, single point]. For `COC(=O)c1ccc(Cn2cc(/C=C\[N+](=O)[O-])c3ccccc32)o1`, the Potency was inconclusive [cytotoxic, single point]. For `COc1cc(OC)cc(C(=O)Nc2ncn[nH]2)c1`, the Potency was inconclusive [rising, single point]. For `O=C(N/N=C/c1ccccc1O)C1SCCCS1`, the Potency was active: 16.4 µM. In the case of `CC(C)(C)C(=O)N1CCC2CC1c1cc(-c3ccc4c(c3)OCO4)ccc12` (stereo unspecified), the Potency is reported as inconclusive [cytotoxic, single point]. For `COc1ccc(C(O)(C2CCCCC2)C(CN2CCOCC2)c2ccccc2)cc1` (stereo unspecified), the Potency was inconclusive [cytotoxic, single point]. For `Cc1ccc(C)c(N2N=C(C(=O)Nc3nccs3)CCC2=O)c1`, the Potency was “inactive”. For `CC(=O)c1cc2c(ccc3ccccc32)oc1=O`, the Potency was inconclusive [cytotoxic, single point]. In the case of `COc1ccc(C2NC(=O)NC(c3ccccc3)=C2c2nc3ccccc3s2)cc1` (stereo unspecified), the Potency is reported as inconclusive [cytotoxic, single point]. For `N#C/C(=C/c1cn(-c2ccccc2)nc1-c1cccc(S(=O)(=O)N2CCCC2)c1)C(=O)NCc1ccco1`, the Potency was “inactive”. With `CC(=O)c1c(N2CCN(c3ccccc3)CC2)nc(=S)n(-c2ccccc2)c1C` the Potency was “inactive”. For `CCCn1c(NC(=O)C2CCN(S(=O)(=O)c3cccs3)CC2)nc2ccccc21`, the Potency was inconclusive [cytotoxic, single point]. For `C(=Cc1cccnc1)c1ccncc1`, the Potency was “inactive”. In the case of `O=C1C=C(NC2=CC3OC(c4ccccc4)OCC3OC2=O)CCC1` (stereo unspecified), the Potency is reported as active: 20.6 µM. For `COc1ccccc1N=CC1=C(O)CC(c2ccccc2)CC1=O` (stereo unspecified), the Potency was inconclusive [cytotoxic, partial curve]. For `O=C(CSc1nc2ccccc2s1)N/N=C/c1cc([N+](=O)[O-])ccc1O`, the Potency was inconclusive [cytotoxic, partial curve]. In the case of `O=C(NC(c1ccc(Cl)cc1)c1cnccn1)C1CCN(Cc2ccc(Oc3ccccc3)cc2)CC1` (stereo unspecified), the Potency is reported as active: 16.4 µM. In the case of `COc1ccc(C(=O)Cn2c(=N)n(C)c3ccccc32)cc1`, the Potency is reported as inconclusive [cytotoxic, single point]. With `N#Cc1c(F)cccc1NCCCn1ccnc1` the Potency was “inactive”. With `O=C(NNc1ccc([N+](=O)[O-])cc1[N+](=O)[O-])c1ccco1` the Potency was inconclusive [cytotoxic, single point]. In the case of `CN1CCN(Cc2c(O)ccc3c(=O)c(Oc4ccccc4Cl)c(C(F)(F)F)oc23)CC1`, the Potency is reported as “inactive”. For `Cc1ccc(C)c(-c2cc(C(=O)Nc3sc(C)c(C)c3C(N)=O)c3ccccc3n2)c1`, the Potency was inconclusive [cytotoxic, single point]. With `O=S(=O)(NCc1ccccc1)c1ccc(-c2cnc(C3CC3)o2)cc1` the Potency was inconclusive [cytotoxic, single point]. With `O=C(NCc1cccs1)C1CCCN1C(=O)Nc1ccccc1Cl` (stereo unspecified) the Potency was “inactive”. In the case of `Cc1ccc(-n2c(C)cc(C(=O)Cn3nc(C(=O)O)c4ccccc4c3=O)c2C)cc1`, the Potency is reported as inconclusive [cytotoxic, single point]. In the case of `Cc1nc2cc(NS(=O)(=O)c3c(C)c(C)cc(C)c3C)ccc2s1`, the Potency is reported as active: 12.6 µM. For `Cn1c(CC(=O)Nc2ccc(Cl)c(Cl)c2)nnc1SCC(=O)N1CCN(c2ccccc2)CC1`, the Potency was inconclusive [cytotoxic, single point]. With `N#C/C(=C\Nc1ccc2cn[nH]c2c1)c1nc(-c2ccc(Cl)cc2)cs1` the Potency was active: 14.6 µM. With `CCOc1ccccc1NC(=O)CCCc1nc2ccccc2c(=O)[nH]1` the Potency was inconclusive [cytotoxic, single point]. In the case of `CCOc1ccc2[nH]c(=O)c(CN(Cc3ccc(F)cc3)C(=O)c3ccco3)cc2c1`, the Potency is reported as active: 23.1 µM. With `C/C(Cn1ncc(N2CCOCC2)c(Cl)c1=O)=N\O` the Potency was “inactive”. For `OCCC#Cc1ccc(N2C(c3ccsc3)=Cc3ccc(F)cc3C2c2c[nH]c3ccccc23)cc1` (stereo unspecified), the Potency was active: 25.9 µM. With `O=C(O)c1ccccc1/C=N/NC(=O)c1cc(-c2ccco2)nc2ccccc12` the Potency was inconclusive [cytotoxic, single point]. For `Cc1cccc(C)c1OCC(=O)N/N=C/c1ccc2c(c1)OCO2`, the Potency was inconclusive [cytotoxic, single point]. In the case of `Cc1ccccc1Nc1nc(N)nc(CSc2nnnn2-c2ccccc2)n1`, the Potency is reported as inconclusive [cytotoxic, single point]. For `CC(C)(C)OC(=O)NCCCC[C@H](NC(=O)c1nc[nH]c1C(=O)NC1CCN(C(=O)OC(C)(C)C)CC1)C(=O)OC(C)(C)C`, the Potency was inconclusive [cytotoxic, single point]. In the case of `CCCN(CCC)Cc1cc(=O)oc2cc(C)cc(C)c12`, the Potency is reported as “inactive”. With `COc1ccc(NC(=O)C2CCN(c3cc(-c4ccccc4)nc4ncnn34)CC2)cc1OC` the Potency was inconclusive [cytotoxic, single point]. In the case of `Cc1cc(N2CCN(C(C(=O)NC3CCCC3)C(C)(C)C)CC2)c2ccccc2n1` (stereo unspecified), the Potency is reported as inconclusive [cytotoxic, partial curve, poor fit]. In the case of `COC(=O)c1cccc(CSc2nnc(C)s2)c1`, the Potency is reported as “inactive”. With `C=CCn1c(O)c(N=NC(=S)Nc2ccccc2F)c2ccccc21` the Potency was inconclusive [cytotoxic, partial curve]. For `COc1ccc(C(=O)c2ccc(OC)cc2OC)cc1`, the Potency was active: 11.6 µM. With `O=C(Nc1cccc(-c2cccc(F)c2)c1)C1CCN(CC2CCOC2)CC1` (stereo unspecified) the activity, negative = toxicity was inconclusive: -31.8% [cytotoxic]. In the case of `O=C(c1ccccc1F)N1CCC(N2CCCCCC2)CC1`, the Potency is reported as inconclusive [rising, single point]. For `COc1cccc(CNc2nc3cc(-c4cccc(OC)c4)sc3c(=O)n2C)c1`, the Potency was “inactive”. With `CC(C)(C)c1ccc(S(=O)(=O)Nc2ccc(C(O)(C(F)(F)F)C(F)(F)F)cc2)cc1` the Potency was active: 20.6 µM. For `COc1ccc(CNC2CCCc3ccccc32)cc1OC` (stereo unspecified), the Potency was “inactive”. In the case of `CN(c1ccccc1)S(=O)(=O)c1cc(C(=O)N2CCN(c3ncccn3)CC2)ccc1Cl`, the Potency is reported as inconclusive [cytotoxic, partial curve]. In the case of `Cc1cccc(-c2nc(CS(=O)CC(=O)N3CC(C)CC(C)C3)c(C)o2)c1` (stereo unspecified), the Potency is reported as “inactive”.
